The values that follow come from the RNAGym collection of RNA variant scans (doi:10.1093/nar/gkz1192).

Read counts are not given, so values of variants with three or more changes are uncertain.

First the molecules themselves.
B1: CPEB3 Ribozyme (parent)
chain: UAACAGGGGGCCACAGCAGAAGCGUUCACGUCGCAGCCCCUGUCAGAUUCUGGUGAAUCUGCGAAUUCUGCUGUAUAUCUC

This data set covers variants of B1. As to the kind of experiment: self-cleavage, relative activity (ratio to wild type); higher = more cleavage; in vitro, sequencing. Summed up:
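After error-prone PCR and barcoding, CPEB3 ribozyme mutant libraries were transcribed with T7 RNA polymerase at 37°C for 5 hours, then given 15 min with DNase I before an EDTA stop, and they cleaved during both steps. Reverse transcription with template switching preceded Illumina sequencing. Relative activity divides a variant's cleaved/total read fraction by the unmutated ribozyme's. At least 5 reads were required per variant, and three batches were averaged.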
Turning to A20G A28C U49G U76A, the self-cleavage was 0.3. Consider A20G U26C A47G U66C, for which the self-cleavage stood at 0.15.

For A20G A28U A64G U72C, the self-cleavage was 0.21. For A20G U26A U51C U80A the value was 0.77. Consider G19C A21G G30U A64G G70A, for which the self-cleavage came to 0.11. As for A20G U25A U41A A56G, the self-cleavage is 0.09. As to A20G G33A U60C U67A U69C, the self-cleavage was 0.06. For G19U U41A U49C U72C the value was 0.1; for A20G A45G A64U A75U, 0.15. In the case of A18U U41G U60C A75G, the self-cleavage turned out to be 0.06. As for A20G U48C U60G U72G U80C, the figure is 0.3. G19A U67G U80A: the self-cleavage came to 0.13. As for A20C U25C U67A U80A, the figure is 0.09; as for G19U U26C U66C U67A, 0.12.

In the case of A20G A35G U66C U72C U80A, the self-cleavage worked out at 1.07.

With A20G C23A G70C U80A, the self-cleavage came to 0.07. As for A20G A21G G22U U66C, the figure is 0.44; as for A20G U43A C79G, 1.22; as for G19U U66C U76C, 0.21.

On to A20G C32U U80A, for which the self-cleavage worked out at 0.31. Take A20G U41A U51C: the self-cleavage is 0.25. As for G19U A28G A35U U74C, the self-cleavage came out at 0.11.

A20G A28G U31A: the self-cleavage came out at 0.19.

Turning to A18U U43A G52A C71U, the self-cleavage came to 0.21. A20G C39G U51A A56U U69C: the self-cleavage stood at 0.06. For A20G U25C C27U A56G the value was 0.38; for A20G C40U U41G U66A, 0.24. For A20G U49C A57G G63A the value was 0.16; for A20G A47U A75G U78C, 0.05. For A20G U26C U54A A57G A64U, the self-cleavage amounted to 0.15. For A20G A28G U43A A45G U48C U60C the value was 0.06; for A20G U25G U69A, 0.07. As for G19C U31C C40A G73A, the figure is 0.11; as for A20G U54A U67C U78C, 1.08; as for G19U U26C A75U, 0.28. As for A20G A21U U54A U60C A65G A77U, the figure is 0.05; as for A20G U41C G70A U72C, 0.23; as for G19U U26C U67C, 0.15.

Turning to G19C A28C C39A A57G A64G, the self-cleavage is 0.14. As for G19U A47U U54C A77G, the figure is 0.04; as for A20G U25C C44G A64G U74C U78C, 0; as for A20G U26C C40U U43C A45G U76A A77C, 0.07. For G19U A21G A45C A56G the value was 0.18; for A20G U31C U51A C79U U80C, 0.65. In the case of A20G A21G U25A, the self-cleavage stood at 0.08. With A20C U43C U74C, the self-cleavage was found to be 0.07. Turning to A20G U48C U69A U78C, the self-cleavage is 0.1. As for A20G G24A A45G U67A U72C, the figure is 0.06. As for A18U U51C A75U U78C, the figure is 0.41; as for A20G U26C G63C A65U C71A, 0.03.

A20C A21G A47G: the self-cleavage is 0.08. As for G19C A21U U25C A35G A56G A57G, the figure is 0.03; as for A20G A35G C44A A77G, 1.06; as for A20G A21U U72C U78C, 0.3. For A18U U43C G61U U67C U69A the value was 0.16; for A20G U48C U78C, 0.43; for A20G C32U U48C U72C, 0.16. As for A20G A45U U69C, the figure is 0.15; as for G19A A21G U60A A65G, 0.11. In the case of A20G U41A A45U C62U, the self-cleavage amounted to 0.11.

A20G A28U C71U: the self-cleavage stood at 0.16. For A20G A45G A56G C81U the value was 0.2. As for A20G U25A A57G, the figure is 0.19; as for A20G A35G G55C U72C A77G, 1.15; as for A20C G24C C32U, 0.15.

With A20G U26C U41A U66C A75U U78C, the self-cleavage was determined as 0.18. As for A20G C27G A28U, the self-cleavage amounted to 0.27.

With A20G U41A C50A, the self-cleavage came out at 0.34.

On to G19A U41A U58C U60C U76A, for which the self-cleavage was found to be 0.08.

In the case of A18U U49C U51A U69A, the self-cleavage was found to be 0.85. For A20G A21U U67C U80C the value was 0.28; for A20G U25C U26G, 0.

For the variant A20G A35G C38A A45G U67C U69C, the self-cleavage came to 0.06. For A20G U25A U26C U54C U58C U80C the value was 0.17. As for G19A G42U U51A U54C U60A U72C, the figure is 0.06. For A20G A28G C34U U41C A64G C68G U74A the value was 0.06; for A18U U51A U54C, 0.53. On to A20G U51A C62U A64U U78C, for which the self-cleavage worked out at 0.14. As for A20G C38G A45G A64G, the figure is 0.12; as for A20G U26C C38A U51C, 0.1; as for G19A U26C U51C, 0.17. As for A20G A21G C39U G42A U43C U69C, the figure is 0.07; as for A20G U31C U43A U54C, 0.38; as for A20G G24A A28U A47U A56U, 0.07. For A20G C37U U51C U80C the value was 0.28; for A20G A35G U41A C50A G70A U72A U78C, 0.03; for A20G U26C A28G U41A U43C U66C U78C, 0.14. Regarding G19A U25G U43C U78C, the self-cleavage amounted to 0.04. As for A20G U31C U60C U76G, the figure is 0.08. For G19U U31C A45G U54C U66C the value was 0.2; for A20G U26A G53U U67C, 0.86. For G19U A20G U51C the value was 0.35; for A20C A21C U31C U41A A47G C59A A75G, 0.04. As for A18U U67C A77U, the self-cleavage worked out at 0.13. As for A20G A21G U31C U41C U67A U69A U78C, the figure is 0.36. On to A20G U26C U78C U80C C81A, for which the self-cleavage was 0.5.

Regarding G19U A20C A77G, the self-cleavage is 0.22. For A20G U41C U60A U69C U74C A75U U80C the value was 0.41; for G19U U43A A45U A47C U72A, 0.08. For A20G A35G A57G U78C the value was 1.48.

A18U U48C U49C U72A: the self-cleavage was determined as 0.07. For G19C A20G C29U, the self-cleavage worked out at 0.34. As for A20G A56G A57G U78C, the figure is 0.14; as for G19U U58C U78G, 0.35. As for A20G U43A A45G U48C U67A, the figure is 0.14; as for G19C A35G A77G, 0.29. For A18U U43A U48C U76C A77G the value was 0.16; for A20G U31A U48C U67C, 0.12. With A20G G30A U80A, the self-cleavage was found to be 0.21. As for A20G G24A U31G C40A A45U A57G A64U, the figure is 0.08. For G19U U49C A64G U78C the value was 0.14; for A20G U26C A45U A47G G52C A57G A77G, 0.09. With A20C U41G U72A, the self-cleavage was 0.35. Turning to A20G C23A U31C A45G G73U U80C, the self-cleavage is 0.04. As for A20G A28G U41C A57G, the figure is 0.28; as for A20G U60A A64G U72C, 0.15; as for A20G U58C U60C C71U, 0.1. As for A20C A21G C40A, the figure is 0.38; as for G19U A47G G63U U74C, 0.33; as for G19A U49C U54C, 0.16. As for A20G C34U U51C U67C U78C, the figure is 0.22; as for G19A C44A A75U, 0.08; as for A20G A21G U26C U48C U58C U60A U78A, 0.03. Take A20G A45U U58C A65G U69A: the self-cleavage came to 0.21. As to A20G C29U C40A U60A U67C, the self-cleavage stood at 0.12. As for A18U U51C U54A A64G U67A U76C, the figure is 0.21; as for A20G C50G G63C, 0.25.

As for A20G U41A U51C A57G, the self-cleavage was 0.42. For A20G A21G A28C C50A A56G the value was 0.19; for A20G G24A U60C U76C, 0.09; for A20G U31C U54G, 0.4.

Turning to G19U U41A A47G A64U, the self-cleavage was found to be 0.18.

In the case of A20C U41A A45G A64U, the self-cleavage is 0.24. For A20G U25C A35U U41C A77U the value was 0.35; for G19U A21G U54G G55U U76A, 0.11; for A18U U41G U54C, 0.2. As for A20G A65G A77G U78A, the figure is 0.27; as for A18U U49A A56G C62U A75G, 0.11; as for A20G G22A U54C, 0.35. For A20G U25C A28U A56U U80C the value was 0.31; for A20G C71U U72C, 0.35; for A20G C40U U48A, 0.17.

A18U U51A U76C: the self-cleavage is 0.6. For G19A A28U A57G C71A U80C the value was 0.09; for A20G A45G U58C U67C, 0.27.

On to A20G U25C U60C, for which the self-cleavage came out at 0.14.

As to A20G A47G U78C, the self-cleavage turned out to be 0.81. For A20G A35G A45U C50U U58G U60G the value was 0.1; for A20G C44G A56G U72C, 0.52. For A20G U41A A75G the value was 0.43; for A20G U26C G33U A64G, 0.19; for A20G A56G U72C, 0.73. For A20G U41A U49C U69G the value was 0.16; for A20G G30A G63U U78C, 0.24. For A20C U26C U31A C44U U48A G63A, the self-cleavage is 0.04. As for A20G U26A A28G U41C, the figure is 0.33.

As for A20G G53C U54C, the self-cleavage is 0.95. As for G19A A28G U60C, the figure is 0.09; as for G19C U51C A77G C79U, 0.33; as for G19U C29U G63U A64G U72A, 0.09. For G19A A35G U41C the value was 0.16. As for A20G A45G U51C U80C, the figure is 0.41; as for A20G A28U G42A U54G A64U, 0.19. Turning to A20G A45G A64G U74A, the self-cleavage came to 0.51. For A20C C37U C39A A45G the value was 0.06.

With A20G U48A G53U, the self-cleavage is 0.36. For A20G C29A A56G U58C the value was 0.23.
